From patent US20210038681A1, “PHARMACEUTICAL COMPOSITION FOR TREATING VIRAL HEPATITIS C” (priority 2018, published 2021)

Experiments:
Assay type in all cases: cell-based
Details in all cases: Hepatitis C virus, read-out: Mean EC50 (nM)
[1] = system: HCV 1b replicon D168A (NS3)
[2] = system: HCV 1b replicon R262Q + R318W + D320E (NS5A)
[3] = system: HCV 1b replicon S282T (NS5B)
[4] = system: HCV 1b replicon C316Y (NS5B)

| SMILES | EC50 [1] [nM] | EC50 [2] [nM] | EC50 [3] [nM] | EC50 [4] [nM] |
| --- | --- | --- | --- | --- |
| CC(C)(C)OC(=O)N[C@H]1CCCCC/C=C\[C@@H]2C[C@@]2(C(=O)NS(=O)(=O)C2CC2)NC(=O)[C@@H]2C[C@@H](OC(=O)N3Cc4cccc(F)c4C3)CN2C1=O [ASC08, Danoprevir] | 128 | 0.8 | 0.6 | 0.7 |
| COC(=O)N[C@H](C(=O)N1CCC[C@H]1c1ncc(-c2ccc3cc(-c4ccc5nc([C@@H]6CCCN6C(=O)[C@@H](NC(=O)OC)C(C)C)[nH]c5c4)ccc3c2)[nH]1)C(C)C [ASC16, Ravidasvir] | 0.007 | 0.009 | 0.008 | 0.009 |
